Experimental findings from PubChem BioAssay AID485344 (National Center for Advancing Translational Sciences (NCATS), 2010) are described below.

SMILES strings stand for the structures. Among all 340,000 compounds or so, about 6,900 (2%) were called active. Rule as the data show it: active = inhibition above about 30%; inactive = below that, where a call was filed. Only a part is listed here, and it is no random draw. Where no call is shown, the source filed none.

Chain of UniProt P14416 (P14416 whole entry, looked up): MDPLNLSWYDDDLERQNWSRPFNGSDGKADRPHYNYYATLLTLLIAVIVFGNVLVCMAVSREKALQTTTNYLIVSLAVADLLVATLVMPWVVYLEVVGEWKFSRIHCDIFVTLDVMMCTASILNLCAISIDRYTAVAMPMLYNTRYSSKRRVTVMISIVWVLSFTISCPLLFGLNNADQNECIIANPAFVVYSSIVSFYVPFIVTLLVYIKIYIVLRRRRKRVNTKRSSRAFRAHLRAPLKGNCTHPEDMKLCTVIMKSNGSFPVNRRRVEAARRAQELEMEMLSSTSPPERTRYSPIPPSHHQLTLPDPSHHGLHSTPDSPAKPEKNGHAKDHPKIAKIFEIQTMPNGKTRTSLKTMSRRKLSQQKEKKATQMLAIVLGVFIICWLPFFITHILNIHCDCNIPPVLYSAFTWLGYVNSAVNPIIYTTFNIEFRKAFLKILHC

This assay deals with D(2) dopamine receptor (Homo sapiens) (UniProt P14416). Briefly: HTS Assay for Allosteric Antagonists of the Human D2 Dopamine Receptor: Primary Screen for Antagonists. Also: 0% is about no effect. As to conditions: HEK293 TREx D2 cells, calcium flux, dopamine EC80; at 10 µM; stronger effect = higher value. A digest of the protocol:
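Antagonism is scored as inhibition of an EC80 dopamine-evoked calcium signal in a force-coupled, tetracycline-inducible HEK293 T-REx D2 line, with compound present 180 s before agonist.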
In general terms: Calcium flux is commonly read through the fluorescence of an indicator in the cells.
On to `CCOc1cc(-c2nc(-c3ccc(-c4ccc(OC)cc4)nc3OC)no2)cc(OCC)c1OCC`, for which the inhibition (usually the drop in the measured response relative to a control, in per cent) was found to be 0.687%. Next, `COc1ccccc1NC(=O)CCn1c(=O)oc2cc(Cl)ccc21`: -9.58%; `COc1ccc(-n2cc(C(=O)NCc3cccc(OC)c3)c3ccccc3c2=O)cc1`: 13.8%; `Cc1ccc(Cn2c(C(=O)O)c(CNCCc3ccco3)c3ccc(C)cc32)cc1`: 10%. Next, `Cc1cc(C)c(C(=O)Nc2ccccc2)c(SCC(=O)Nc2ccc(Br)cc2C)n1`: -4.99%; `O=C(COC(=O)CCCSc1nc2ccccc2[nH]1)Nc1ccc(Oc2ccccc2)cc1`: active: 38.2%. Next, `CCn1c(NCc2cccc(Cl)c2)nc2ccccc21`: 19.3%. For `CC(C)N(Cc1ccccc1)C(=O)C1CCCN(c2ncnc3c2nc2n3CCCCC2)C1` (configuration not stated), the inhibition is active: 38%.

With `O=c1cc(-c2ccc(O)cc2)oc2ccc(O)cc12`, the inhibition is active: 37.4%. Next, `COc1cc(-c2nc3ccc(C)cn3c2Nc2ccc(Cl)cc2)ccc1O`: 12.7%; `O=C(CSc1nc(-c2ccccc2)cn1-c1ccccc1)Nc1ccccc1`: -8.3%; `COc1cccc(C(=O)NC2=NC(c3ccc(N(C)C)cc3)CC(=O)N2)c1` (configuration not stated): 15.2%. Next, `CC(C)Oc1ccc(CNC(=O)CCCn2c(=O)c3cccn3c3cccnc32)cc1`: 3.53%. Next, `O=C(NCc1ccc2c(c1)CCN2C(=O)c1ccncc1)c1ccc(Cl)cc1`: 4.07%; `COc1cccc(-c2nnc3n(Cc4ccccc4Cl)c(=O)c4ccccc4n23)c1O`: 1.43%; `Cc1ccc2c(=O)c(C(=O)c3ccccc3)cn(CC(=O)Nc3ccccc3)c2n1`: -11%. In the case of `Cc1c(Cl)cccc1NC(=O)CN1C(=O)CCn2nc(-c3cccn3C)cc21`, the inhibition was -8.66%. Under `COCCN(CCOC)C(=O)c1cc2c(=O)n3ccccc3nc2n1C` stands 25.7%; under `CCOC(=O)C(Cc1c[nH]c2ccccc12)NC(=O)COc1ccc(Cl)cc1` (configuration not stated), 12.2%; under `CC(C(=O)Nc1ccccc1C(F)(F)F)n1nc(-c2ccccc2)c2c(c1=O)CCCC2` (configuration not stated), -8.88%. Under `CC(C)CC(=O)Nc1c(C(=O)N2CCN(c3ccccc3F)CC2)oc2ccccc12` stands -20.8%. Under `Cc1cc(C)c2c(-n3cccc3)c(C(=O)NCCc3ccccc3)sc2n1` stands 6.48%. For the compound `CCN(CC)c1ccc(C(=O)NCc2ccc3c(c2)CCN3C(C)=O)cc1`, the inhibition amounted to 9.96%. On to `CC(=O)c1ccc(N2CCN(C(=O)Nc3cccc(F)c3)CC2)cc1`, for which the inhibition was determined as 0.635%.

With `COC(=O)C1=C(c2ccccc2)c2ccccc2S(=O)(=O)N1CC(=O)Nc1ccccc1C(F)(F)F`, the inhibition was -20.8%. As to `CCCCC(=O)Nc1ccc(C(=O)OCc2cc(=O)n3nc(C4CC4)sc3n2)cc1`, the inhibition amounted to 10.1%. Turning to `COc1ccc(S(=O)(=O)Cc2ccc(C(=O)NC3CCCCC3)o2)cc1`, the inhibition came out at 3.15%.

Turning to `C=CCN1CCc2nc(N)sc2CC1`, the inhibition is active: 89.2%.

As for `Cc1cccc(N2CCN(c3ccc(C(=O)O)cc3NC(=O)c3ccccc3F)CC2C)c1` (configuration not stated), the inhibition is -5.57%. For the compound `Cc1cc(Cl)ccc1NC(=O)CN1C(=O)C(=O)c2ccccc21`, the inhibition was -0.778%. Under `CCOC(=O)C1CCN(Cc2cccc(OC)c2)CC1` stands active: 43.6%; under `CSc1cccc(NC(=O)Cn2nnc(C(=O)NCCc3ccccc3)c2N)c1`, 0.665%. In the case of `CCN1CCN(C(c2ccccc2)c2c(O)cc(C)n(CCOC)c2=O)CC1` (configuration not stated), the inhibition was -18.4%. Next, `COc1ccc(-n2nc(C(N)=O)c(O)cc2=O)cc1`: active: 32.1%; `O=C(Nc1nonc1-c1ccc(Br)cc1)c1ccco1`: -13.5%. Next, `Cc1nc2ccccc2n1CCc1nc2c3ccccc3nc(SCC(=O)Nc3ccc(C(C)C)cc3)n2n1`: -0.567%; `COc1cccc(Cn2cc(S(=O)(=O)c3ccc(C)cc3)c(=O)c3cc4c(cc32)OCO4)c1`: -17%. As to `Cc1ccc(NC(=O)CSc2[nH]c(=O)ncc2C)cc1`, the inhibition was 15.8%.

As for `Clc1ccc(CSc2nc3ncccc3[nH]2)cc1`, the inhibition was 1.87%. Next, `CCCc1ccc(NC(=O)C2CCN(c3cnccn3)CC2)cc1`: -4.5%; `Cc1ccc(NC(=O)Cc2ccc(NC(=O)N3CCCCc4ccccc43)cc2)cc1`: 10.7%. Next, `CCN1CCN(CCCNC(=O)Cn2nc(C)n3c(cc4cc(C)ccc43)c2=O)CC1`: -7.51%; `COc1ccccc1N1CCN(C2CCN(C3CCC(c4ccccc4)CC3)CC2)CC1` (configuration not stated): active: 45.1%.

Regarding `COc1ccc(OC)c(CNC(=O)C2COc3ccccc3C2)c1` (configuration not stated), the inhibition came out at 4.06%.

On to `COc1ccc2nc(N3CCN(C(=O)c4ccco4)CC3)sc2c1`, for which the inhibition was -18.6%.

`CCc1ccc(S(=O)(=O)c2nnn3c2nc(N2CCCC(C)C2)c2cc(Cl)ccc23)cc1` (configuration not stated): the inhibition was -0.647%. Next, `CCOC(=O)Cc1ccc(NC(=O)N2CC(CC)Oc3ccccc32)cc1` (configuration not stated): -18.3%; `Cc1ccc(-c2nc3c4ccccc4n(Cc4cccc(Cl)c4)c(=O)n3n2)cc1`: 11.9%. For `COc1ccc(N2CCN(C(=O)CCn3cnc4onc(-c5ccc(F)cc5)c4c3=O)CC2)cc1`, the inhibition turned out to be 8.98%. Next, `Cc1cccc(-c2nc3nc(C)cc(N4CCN(c5ccccc5)CC4)n3n2)c1`: 1.97%. Under `COc1cccc(CNS(=O)(=O)c2ccc3c(c2)N(C)CCO3)c1` stands active: 38.8%; under `CC(C)(C)C1CCc2c(sc(NC(=O)c3ccncc3)c2C(=O)Nc2ccccc2Cl)C1` (configuration not stated), -27.3%; under `COc1cccc(N2CCN(Cc3nnc(-c4ccc5c(c4)OCO5)o3)CC2)c1`, 2.89%. Next, `COc1ccc(NS(=O)(=O)c2ccc(NS(=O)(=O)c3ccc4c(c3)OCCO4)cc2)cc1`: -0.712%; `Cc1c(C(=O)NCc2ccccc2Cl)sc2nc3n(c(=O)c12)CCC3`: 17.7%.

Consider `COc1ccc(S(=O)(=O)N(C)C)cc1NC(=O)Cc1cccs1`, for which the inhibition is active: 34.3%.

For `Cc1cc(C)cc(N2CCn3c2nc2c3c(=O)n(CCc3ccccc3)c(=O)n2C)c1`, the inhibition is 4.45%.

In the case of `COc1ccc(N(CC(=O)NCc2ccc(C)cc2)S(=O)(=O)c2c(C)[nH]c(=O)[nH]c2=O)cc1`, the inhibition is 1.8%. Under `COc1ccc(Br)cc1CNC(=O)c1ccc2c(c1)nc1n2CCCCC1` stands -11.9%. Turning to `Cc1cccc(CN2C(=O)c3ccccc3S(=O)(=O)c3ccc(C(=O)N4CCN(c5cc(C)ccc5C)CC4)cc32)c1`, the inhibition was -2.38%. Next, `CCc1ccc(-c2cc3c(N4CCN(c5ccccc5)CC4)nccn3n2)cc1`: 23.6%; `COc1cccc(C(=O)n2nc(-c3ccco3)nc2NCc2cccs2)c1`: 7.92%. Under `CC1=C(C(=O)OCc2ccc(C)cc2)C(c2ccccc2Cl)CC(=O)N1` (configuration not stated) stands -0.403%. Next, `CCC(C)(C)NC(=O)/C=C/c1cc(OC)c(OC)c(S(=O)(=O)N2CCc3ccccc32)c1`: active: 40.9%. For `Cc1nc2c3ccccc3nc(NNC(=O)CCC(=O)N3CCN(c4ccccc4)CC3)n2n1`, the inhibition was -6.81%. Under `Cc1cccc(OCC(=O)Nc2ccc3c(c2)nc(CCNC(=O)c2ccco2)n3C)c1` stands -6.3%; under `CCOC(=O)c1c(C)oc2nc(C)nc(NC(C)c3ccccc3)c12` (configuration not stated), 3.23%; under `CCOC(=O)CNC(=O)CSc1nnc(-c2ccco2)n1N`, active: 34.3%. For `CCCNC(=O)CCC(=O)N1Cc2ccccc2Oc2ncccc21`, the inhibition was -6.39%. Regarding `COc1ccccc1N1CCN(C(=O)C2CC=CCC2C(=O)O)CC1` (configuration not stated), the inhibition is active: 32.9%.

On to `COc1ccc(C(=O)CN2C(=O)N(c3cc(C)ccc3C)S(=O)(=O)c3ccccc32)cc1`, for which the inhibition stood at 14.2%.

In the case of `CCc1ccccc1NC(=O)C1CCN(C2=NS(=O)(=O)C(c3ccc(C)c(C)c3)=C2C)CC1`, the inhibition turned out to be 0.69%. Under `Cc1cc(C)cc(NC(=O)c2sc3nc(-c4cc5ccccc5oc4=O)[nH]c(=O)c3c2C)c1` stands 15.1%; under `COC(=O)c1c(C)sc(-c2c(-c3cccc(Cl)c3)[nH]c3c2c(=O)[nH]c(=O)n3C)c1O`, -5.61%; under `COc1ccc(CCNC(=O)CCc2c(C)nc3c(c(C)nn3-c3ccccc3)c2C)c(OC)c1`, -20%. Under `COc1ccc(-c2noc(N3CCN(c4cccc(C)c4C)CC3)n2)cc1OC` stands -5.74%. Under `COc1ccccc1C(=O)Nc1nnc(SCc2cc(=O)n3ccc(C)cc3n2)s1` stands -0.884%. On to `CCc1cccc(C)c1NC(=O)C(C)Sc1nc2c(c(=O)[nH]1)CCCC2` (configuration not stated), for which the inhibition was determined as 25.3%. Under `Cc1cccc(N2CCN(C(=O)c3oc(=O)c4ccccc4c3-c3ccccc3)CC2)c1C` stands -7.26%. Next, `Cc1ccc(C(=O)Nc2ccc(OCc3cc(=O)n4c5c(sc4n3)CCCC5)cc2)cc1`: 22%; `S=c1[nH]nc(Cc2c[nH]c3ccccc23)o1`: active: 41.4%; `Cc1c(NC(=O)c2ccc(N3CCC(C)CC3)c([N+](=O)[O-])c2)cccc1-c1nc2ccccc2o1`: -2.84%. For the compound `Cc1cc(NC(=O)Nc2csc3c2CCCC3)ccc1Br`, the inhibition is -14.8%. Next, `COCCCNC(=O)C1CCC(Cn2c(=O)c3sccc3n(Cc3ccc(F)cc3)c2=O)CC1` (configuration not stated): 0.174%; `COc1ccc(CCN2C(=O)N(c3ccc(F)cc3)C(=O)C2CC(=O)Nc2ccc(F)c(F)c2)cc1` (configuration not stated): 6.53%; `CCOc1ccc(N(CC(=O)NCc2ccc(Cl)cc2)S(=O)(=O)c2c(C)noc2C)cc1`: -2.95%.

In the case of `CCCc1ccc(OCC(O)CN2CCN(c3ccccc3)CC2)cc1` (configuration not stated), the inhibition is active: 68.7%. Under `O=C(CSc1n[nH]c(-c2ccccc2Cl)n1)N1CCN(c2ccccc2F)CC1` stands -3.36%; under `CC1=C(C(=O)Nc2cccnc2)C(c2ccccc2)n2nc(SCc3ccccc3F)nc2N1` (configuration not stated), -4.37%. On to `Cc1oc(-c2ccc(C(=O)NCc3ccccc3)cc2)nc1CS(=O)(=O)c1ccccc1`, for which the inhibition was -8.12%. `COc1ccc(-c2coc3c2c(C)cc2oc(=O)cc(C)c23)cc1`: the inhibition is -6.5%.

As for `O=C(NC1CCCC1)c1ccc2c(c1)N(Cc1ccccc1F)C(=O)c1ccccc1S2`, the inhibition was -4.66%. Next, `Cc1ccccc1NC(=O)CN1C(=O)CCn2nc(-c3cccn3C)cc21`: -10.2%; `CCCCn1c(-c2ccc(C)cc2)c(C)n2c3c(=O)n(C)c(=O)n(C)c3nc12`: -19.6%; `Cc1ccc(OCCCCn2c(CCNC(=O)C(C)(C)C)nc3ccccc32)cc1`: 2.21%. As to `Cc1ccc(S(=O)(=O)N2CCC(C(=O)NCCc3ccccn3)CC2)cc1`, the inhibition is active: 42.6%. Under `Cc1ccccc1-c1noc(CSc2nnc(-c3ccncc3)n2-c2ccc(F)cc2)n1` stands -11.7%.
